The assay addresses T1, sodium-phosphate cotransporter (Homo sapiens, UniProt Q8WUM9).
T1 sequence (Q8WUM9 1-679): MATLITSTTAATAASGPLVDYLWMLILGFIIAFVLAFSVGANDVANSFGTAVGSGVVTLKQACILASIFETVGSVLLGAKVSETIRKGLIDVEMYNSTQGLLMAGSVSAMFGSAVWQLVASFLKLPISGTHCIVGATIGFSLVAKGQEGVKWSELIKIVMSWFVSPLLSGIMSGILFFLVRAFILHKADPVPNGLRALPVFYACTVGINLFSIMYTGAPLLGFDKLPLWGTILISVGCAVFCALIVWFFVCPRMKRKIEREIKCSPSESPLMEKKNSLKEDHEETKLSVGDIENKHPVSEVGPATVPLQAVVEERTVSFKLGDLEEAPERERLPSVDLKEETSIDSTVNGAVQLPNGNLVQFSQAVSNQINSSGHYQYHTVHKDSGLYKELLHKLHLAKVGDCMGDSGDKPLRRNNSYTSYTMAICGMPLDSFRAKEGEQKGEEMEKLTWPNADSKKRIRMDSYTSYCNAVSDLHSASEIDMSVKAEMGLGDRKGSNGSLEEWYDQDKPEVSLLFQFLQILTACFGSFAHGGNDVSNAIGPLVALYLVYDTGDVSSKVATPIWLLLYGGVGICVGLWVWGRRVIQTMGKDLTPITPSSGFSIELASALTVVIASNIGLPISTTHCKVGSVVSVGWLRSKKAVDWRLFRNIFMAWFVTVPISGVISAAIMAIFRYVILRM
Description: Na-dependent 32PO4 influx into erythroleukemic K562 cells. The arrangement: influx into the erythroleukemic line of K562 cells was measured; endogenous in cells; host or cells: K562 erythroleukemic cells. Format: cell-based.

Turning to `[Rb+]` [Rb], the “activation of phosphate influx” value was “no activation”.

For the molecule `[K+]` [K], the “activation of phosphate influx” value is reported as “no activation”.
